From PMC5992981
Results are given in words; binding and its absence hold for the method and conditions named. In cells and extracts the contact can be indirect. Some results given as binding are weak or reduced against the parent protein; the word gives no strength. For some of these results: Tags and fused reporters may be left off the sequences shown.

Amino acid sequences for entries named in this document (tags omitted). Residues count along the entry.
UniProt P25911: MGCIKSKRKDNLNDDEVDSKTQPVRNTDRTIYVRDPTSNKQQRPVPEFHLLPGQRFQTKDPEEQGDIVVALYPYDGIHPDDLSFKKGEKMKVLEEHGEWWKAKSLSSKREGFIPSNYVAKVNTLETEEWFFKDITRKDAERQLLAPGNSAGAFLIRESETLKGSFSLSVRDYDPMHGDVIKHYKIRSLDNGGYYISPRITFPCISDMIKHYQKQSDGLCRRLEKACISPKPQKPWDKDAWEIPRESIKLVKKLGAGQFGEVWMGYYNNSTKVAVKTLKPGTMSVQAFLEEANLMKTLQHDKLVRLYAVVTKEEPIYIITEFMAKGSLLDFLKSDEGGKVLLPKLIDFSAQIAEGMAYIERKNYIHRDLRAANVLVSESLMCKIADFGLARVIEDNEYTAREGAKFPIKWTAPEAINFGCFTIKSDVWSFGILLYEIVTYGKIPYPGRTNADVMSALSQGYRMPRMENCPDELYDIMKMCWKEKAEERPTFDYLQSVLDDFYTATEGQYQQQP
UniProt P29351: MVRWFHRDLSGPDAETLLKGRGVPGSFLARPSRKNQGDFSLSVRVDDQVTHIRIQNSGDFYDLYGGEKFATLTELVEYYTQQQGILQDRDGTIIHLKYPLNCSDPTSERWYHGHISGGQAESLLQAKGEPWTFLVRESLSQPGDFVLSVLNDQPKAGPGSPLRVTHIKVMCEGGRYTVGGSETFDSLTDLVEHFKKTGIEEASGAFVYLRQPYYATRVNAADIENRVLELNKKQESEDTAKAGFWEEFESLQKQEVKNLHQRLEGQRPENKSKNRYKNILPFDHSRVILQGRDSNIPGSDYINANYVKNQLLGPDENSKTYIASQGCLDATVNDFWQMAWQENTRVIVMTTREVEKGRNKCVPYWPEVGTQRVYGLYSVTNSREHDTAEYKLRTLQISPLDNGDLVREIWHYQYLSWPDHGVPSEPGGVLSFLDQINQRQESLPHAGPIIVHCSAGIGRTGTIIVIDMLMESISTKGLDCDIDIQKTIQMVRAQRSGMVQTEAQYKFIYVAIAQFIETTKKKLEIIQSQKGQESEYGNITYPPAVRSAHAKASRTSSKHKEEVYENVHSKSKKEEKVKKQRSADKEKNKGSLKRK
UniProt P05555, residues 17-1153: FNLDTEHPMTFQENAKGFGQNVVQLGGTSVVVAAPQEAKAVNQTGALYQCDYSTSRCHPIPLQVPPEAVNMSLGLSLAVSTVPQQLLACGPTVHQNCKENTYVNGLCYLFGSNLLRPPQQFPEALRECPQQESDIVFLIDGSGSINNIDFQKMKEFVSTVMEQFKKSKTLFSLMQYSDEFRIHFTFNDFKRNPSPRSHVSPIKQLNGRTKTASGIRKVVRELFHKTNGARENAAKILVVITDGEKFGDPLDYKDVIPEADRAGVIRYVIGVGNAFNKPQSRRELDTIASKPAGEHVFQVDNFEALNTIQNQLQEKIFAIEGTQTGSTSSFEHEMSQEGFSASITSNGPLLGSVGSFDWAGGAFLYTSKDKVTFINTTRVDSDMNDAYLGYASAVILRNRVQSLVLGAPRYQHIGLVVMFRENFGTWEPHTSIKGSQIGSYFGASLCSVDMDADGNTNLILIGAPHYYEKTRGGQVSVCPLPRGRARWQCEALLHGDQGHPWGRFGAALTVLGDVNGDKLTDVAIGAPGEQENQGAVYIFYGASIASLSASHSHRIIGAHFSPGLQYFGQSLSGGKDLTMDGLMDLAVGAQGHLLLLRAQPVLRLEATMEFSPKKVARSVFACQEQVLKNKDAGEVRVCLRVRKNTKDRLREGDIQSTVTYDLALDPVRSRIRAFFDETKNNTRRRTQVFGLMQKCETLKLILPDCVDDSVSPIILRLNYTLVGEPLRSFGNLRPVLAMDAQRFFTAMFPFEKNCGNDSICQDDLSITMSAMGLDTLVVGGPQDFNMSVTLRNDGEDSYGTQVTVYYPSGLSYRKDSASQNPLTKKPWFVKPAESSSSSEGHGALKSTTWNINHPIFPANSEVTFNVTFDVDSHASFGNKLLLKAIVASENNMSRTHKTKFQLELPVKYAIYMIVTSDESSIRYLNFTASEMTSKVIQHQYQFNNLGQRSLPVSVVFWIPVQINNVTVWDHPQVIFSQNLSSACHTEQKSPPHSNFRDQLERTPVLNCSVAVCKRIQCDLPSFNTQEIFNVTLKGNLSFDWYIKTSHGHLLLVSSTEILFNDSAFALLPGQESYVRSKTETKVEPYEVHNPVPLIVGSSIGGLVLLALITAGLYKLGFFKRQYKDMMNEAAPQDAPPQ

Key:
[1] = target: Lyn kinase, HA-tagged (mouse (cDNA from BMMs of mice)) (UniProt P25911); assay: proximity ligation; Duolink in situ PLA in WT iBMMs under resting (basal) conditions, without TDM
[2] = target: Lyn kinase, HA-tagged (mouse (cDNA from BMMs of mice)) (UniProt P25911); assay: proximity ligation; Duolink in situ PLA in WT iBMMs transfected for 24 h and seeded on TDM-coated slides (TDM 50 ug/ml, 12-24 h; fibrinogen 30 min as a further stimulus in Figure 4c); fixed in 4% paraformaldehyde; for pairs called independent of TDM also without TDM
[3] = target: T1, macrophage-inducible C-type lectin (Mincle), V5-tagged (mouse (cDNA from BMMs of mice)) (UniProt Q9R0Q8); assay: as above
T1 sequence: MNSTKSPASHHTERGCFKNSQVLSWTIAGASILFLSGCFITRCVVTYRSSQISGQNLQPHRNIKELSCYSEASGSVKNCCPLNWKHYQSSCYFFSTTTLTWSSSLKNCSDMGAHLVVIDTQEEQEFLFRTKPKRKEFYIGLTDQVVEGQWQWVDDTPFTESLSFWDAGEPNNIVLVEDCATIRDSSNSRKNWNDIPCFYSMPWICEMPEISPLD

[4] = target: T1, macrophage-inducible C-type lectin (Mincle), V5-tagged (mouse (cDNA from BMMs of mice)); assay: co-IP; iBMM cells stably expressing Mincle-V5, stimulated with TDM for the indicated times; NP-40 lysis buffer; V5 agarose overnight at 4 °C; immunoblot
[5] = target: Lyn kinase, endogenous (mouse (endogenous in BMM and iBMM)) (UniProt P25911); assay: co-IP; endogenous proteins in WT BMMs after TDM stimulation; NP-40 lysis buffer; agarose-A beads with Lyn or SHP1 antibodies overnight at 4 °C; immunoblot
[6] = target: SHP1, endogenous (mouse (endogenous in iBMM and BMM)) (UniProt P29351); assay: as above
[7] = target: integrin CD11b, Flag-tagged (mouse (cDNA from BMMs of mice)) (UniProt P05555); assay: proximity ligation; Duolink in situ PLA in Lyn-/- iBMMs stimulated with TDM
[8] = target: T1, macrophage-inducible C-type lectin (Mincle), V5-tagged (mouse (cDNA from BMMs of mice)); assay: as above
[9] = target: integrin CD11b, Flag-tagged (mouse (cDNA from BMMs of mice)) (UniProt P05555); assay: proximity ligation; Duolink in situ PLA in Syk-/- iBMMs stimulated with TDM
[10] = target: T1, macrophage-inducible C-type lectin (Mincle), V5-tagged (mouse (cDNA from BMMs of mice)); assay: as above
[11] = target: Lyn kinase, HA-tagged (mouse (cDNA from BMMs of mice)) (UniProt P25911); assay: proximity ligation; Duolink in situ PLA in WT iBMMs under resting (basal) conditions, without TDM; remark: listed apart in the source
[12] = target: SH2 domain-containing phosphatase 1 (SHP1), Flag-tagged (mouse (cDNA from BMMs of mice)) (UniProt P29351); assay: as above
[13] = target: integrin CD11b, Flag-tagged (mouse (cDNA from BMMs of mice)) (UniProt P05555); assay: as above
[14] = target: Lyn kinase, HA-tagged (mouse (cDNA from BMMs of mice)) (UniProt P25911); assay: proximity ligation; Duolink in situ PLA in WT iBMMs transfected for 24 h and seeded on TDM-coated slides (TDM 50 ug/ml, 12-24 h; fibrinogen 30 min as a further stimulus in Figure 4c); fixed in 4% paraformaldehyde; for pairs called independent of TDM also without TDM; remark: listed apart in the source
[15] = target: SH2 domain-containing phosphatase 1 (SHP1), Flag-tagged (mouse (cDNA from BMMs of mice)) (UniProt P29351); assay: as above
[16] = target: integrin CD11b, Flag-tagged (mouse (cDNA from BMMs of mice)) (UniProt P05555); assay: as above
[17] = target: T1, macrophage-inducible C-type lectin (Mincle), V5-tagged (mouse (cDNA from BMMs of mice)); assay: as above; remark: listed apart in the source

Question: Which binding [1] does the source give for “integrin CD11b, Flag-tagged (from UniProt P05555 17-1153) (receptor)” here?
Answer: no binding (condition: without TDM stimulation)

Question: What about the binding [2] of the same molecule?
Answer: binds

Question: What about the binding [3] of the same molecule?
Answer: binds

Question: “SHP1, endogenous (from UniProt P29351 1-595) (enzyme)” was tested. Which binding [4] did it give?
Answer: binds

Question: For “integrin CD11b, endogenous (from UniProt P05555 17-1153) (receptor)”, which binding [4] is on record?
Answer: binds

Question: What about the binding [5] of the same molecule?
Answer: binds

Question: And the binding [6]?
Answer: binds

B1: SIRPα, endogenous (receptor, UniProt P97797 32-513)
chain: KELKVTQPEKSVSVAAGDSTVLNCTLTSLLPVGPIRWYRGVGPSRLLIYSFAGEYVPRIRNVSDTTKRNNMDFSIRISNVTPADAGIYYCVKFQKGSSEPDTEIQSGGGTEVYVLAKPSPPEVSGPADRGIPDQKVNFTCKSHGFSPRNITLKWFKDGQELHPLETTVNPSGKNVSYNISSTVRVVLNSMDVNSKVICEVAHITLDRSPLRGIANLSNFIRVSPTVKVTQQSPTSMNQVNLTCRAERFYPEDLQLIWLENGNVSRNDTPKNLTKNTDGTYNYTSLFLVNSSAHREDVVFTCQVKHDQQPAITRNHTVLGFAHSSDQGSMQTFPDNNATHNWNVFIGVGVACALLVVLLMAALYLLRIKQKKAKGSTSSTRLHEPEKNAREITQVQSLIQDTNDINDITYADLNLPKEKKPAPRAPEPNNHTEYASIETGKVPRPEDTLTYADLDMVHLSRAQPAPKPEPSFSEYASVQVQRK
Question: For B1, which binding [7] is on record?
Answer: binds weakly

Question: What about the binding [8] of the same molecule?
Answer: binds weakly

Question: What about the binding [9] of the same molecule?
Answer: binds weakly

Question: What about the binding [10] of the same molecule?
Answer: binds weakly

Question: And the binding [11]?
Answer: no binding (condition: without TDM stimulation)

Question: What about the binding [12] of the same molecule?
Answer: no binding (condition: without TDM stimulation)

Question: What about the binding [13] of the same molecule?
Answer: no binding (condition: without TDM stimulation)

Question: What about the binding [14] of the same molecule?
Answer: binds

Question: And the binding [15]?
Answer: binds

Question: What about the binding [16] of the same molecule?
Answer: binds

Question: What about the binding [17] of the same molecule?
Answer: binds

B2: Pirb (receptor, UniProt P97484 25-841)
chain: SLPKPILRVQPDSVVSRRTKVTFLCEETIGANEYRLYKDGKLYKTVTKNKQKPENKAEFSFSNVDLSNAGQYRCSYSTQYKSSGYSDLLELVVTGHYWTPSLLAQASPVVTSGGYVTLQCESWHNDHKFILTVEGPQKLSWTQDSQYNYSTRKYHALFSVGPVTPNQRWICRCYSYDRNRPYVWSPPSESVELLVSGNLQKPTIKAEPGSVITSKRAMTIWCQGNLDAEVYFLHNEKSQKTQSTQTLQEPGNKGKFFIPSVTLQHAGQYRCYCYGSAGWSQPSDTLELVVTGIYEYYEPRLSVLPSPVVTAGGNMTLHCASDFPYDKFILTKEDKKFGNSLDTEHISSSGQYRALFIIGPTTPTHTGAFRCYGYYKNAPQLWSVPSALQQILISGLSKKPSLLTHQGHILDPGMTLTLQCFSDINYDRFALHKVGGADIMQHSSQQTDTGFSVANFTLGYVSSSTGGQYRCYGAHNLSSEWSASSEPLDILITGQLPLTPSLSVQPNHTVHSGETVSLLCWSMDSVDTFILSKEGSAQQPLRLKSKSHDQQSQAEFSMSAVTSHLSGTYRCYGAQDSSFYLLSSASAPVELTVSGPIETSTPPPTMSMPLGGLHMYLKALIGVSVAFILFLFIFIFILLRRRHRGKFRKDVQKEKDLQLSSGAEEPITRKGELQKRPNPAAATQEESLYASVEDMQTEDGVELNSWTPPEEDPQGETYAQVKPSRLRKAGHVSPSVMSREQLNTEYEQAEEGQGANNQAAESGESQDVTYAQLCSRTLRQGAAASPLSQAGEAPEEPSVYATLAAARPEAVPKDMEQ
Question: Which results are given for B2?
Answer: binding [14]: binds; binding [15]: binds; binding [16]: binds

B3: SH2 domain-containing 5'-inositol phosphatase (SHIP1), Myc-tagged (enzyme, UniProt Q9ES52 1-1191)
chain: MPAMVPGWNHGNITRSKAEELLSRAGKDGSFLVRASESIPRAYALCVLFRNCVYTYRILPNEDDKFTVQASEGVPMRFFTKLDQLIDFYKKENMGLVTHLQYPVPLEEEDAIDEAEEDTVESVMSPPELPPRNIPMSAGPSEAKDLPLATENPRAPEVTRLSLSETLFQRLQSMDTSGLPEEHLKAIQDYLSTQLLLDSDFLKTGSSNLPHLKKLMSLLCKELHGEVIRTLPSLESLQRLFDQQLSPGLRPRPQVPGEASPITMVAKLSQLTSLLSSIEDKVKSLLHEGSESTNRRSLIPPVTFEVKSESLGIPQKMHLKVDVESGKLIVKKSKDGSEDKFYSHKKILQLIKSQKFLNKLVILVETEKEKILRKEYVFADSKKREGFCQLLQQMKNKHSEQPEPDMITIFIGTWNMGNAPPPKKITSWFLSKGQGKTRDDSADYIPHDIYVIGTQEDPLGEKEWLELLRHSLQEVTSMTFKTVAIHTLWNIRIVVLAKPEHENRISHICTDNVKTGIANTLGNKGAVGVSFMFNGTSLGFVNSHLTSGSEKKLRRNQNYMNILRFLALGDKKLSPFNITHRFTHLFWLGDLNYRVELPTWEAEAIIQKIKQQQYSDLLAHDQLLLERKDQKVFLHFEEEEITFAPTYRFERLTRDKYAYTKQKATGMKYNLPSWCDRVLWKSYPLVHVVCQSYGSTSDIMTSDHSPVFATFEAGVTSQFVSKNGPGTVDSQGQIEFLACYATLKTKSQTKFYLEFHSSCLESFVKSQEGENEEGSEGELVVRFGETLPKLKPIISDPEYLLDQHILISIKSSDSDESYGEGCIALRLETTEAQHPIYTPLTHHGEMTGHFRGEIKLQTSQGKMREKLYDFVKTERDESSGMKCLKNLTSHDPMRQWEPSGRVPACGVSSLNEMINPNYIGMGPFGQPLHGKSTLSPDQQLTAWSYDQLPKDSSLGPGRGEGPPTPPSQPPLSPKKFSSSTANRGPCPRVQEARPGDLGKVEALLQEDLLLTKPEMFENPLYGSVSSFPKLVPRKEQESPKMLRKEPPPCPDPGISSPSIVLPKAQEVESVKGTSKQAPVPVLGPTPRIRSFTCSSSAEGRMTSGDKSQGKPKASASSQAPVPVKRPVKPSRSEMSQQTTPIPAPRPPLPVKSPAVLQLQHSKGRDYRDNTELPHHGKHRQEEGLLGRTAMQ
Question: For B3, which binding [14] is on record?
Answer: no binding
